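Results reflect a 48-hour exposure of cells in 96-well plates to compound at five concentrations. Abbreviation: GI50, concentration required for 50% inhibition of growth.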 Calls of active or inactive are those of the source. No stated cut-off is given here; in the data, active = GI50 up to about 1.1 µM and inactive = higher.
test system: NCI-H322M; test: NCI tumour cell line growth inhibition, 48 h

Row | Compound | GI50
1 | CC1(C)OC(CCO)CN1C(=O)OCc1ccccc1 (stereo unspecified) | inactive: > 100 µM
2 | CCC(=O)NC(Nc1ccc(O)cc1)(C(F)(F)F)C(F)(F)F | inactive: > 100 µM
3 | CCOc1ccccc1N1CSc2nnc(-c3ccccc3)n2C1 | inactive: > 100 µM
4 | O=S(=O)(c1ccc(Br)cc1)n1c2ccc(Br)cc2c2nc3ccccc3nc21 | inactive: > 100 µM
5 | CCOC(=O)C(C)c1nc2ccc(C(F)(F)F)cc2[nH]c1=O (stereo unspecified) | inactive: 67.6 µM
6 | O=C(O)/C=C\C(=O)Nc1ccc(S(=O)(=O)c2ccc(NC(=O)/C=C\C(=O)O)cc2)cc1 | inactive: > 100 µM
7 | COC(=O)/C=c1/c2ccccc2n2nc3ccccc3c12 | inactive: 34.1 µM
8 | COC(=O)CC(c1ccccc1)C(C#N)(OP1(=O)OC(c2ccccc2)C(C)N1C)c1ccccc1 (stereo unspecified) | inactive: > 100 µM
9 | CCCCCCCCCCCCc1ccsc1-c1ccc(-c2ccc(-c3sccc3CCCCCCCCCCCC)s2)s1 | inactive: > 100 µM
10 | O=C1CCSSCCC(=O)Nc2ccccc2N1 | inactive: > 100 µM
11 | COc1cc(C2=NNC(=O)c3ccccc3N2c2nc(-c3cccs3)nc3ccc(Br)cc23)cc(OC)c1OC | inactive: 18.2 µM
12 | CC1(C)CC(N2CCN(C3CC(C)(C)NC(C)(C)C3)CC2)CC(C)(C)N1 | inactive: > 100 µM
13 | CC1=CC2=C(OCO1)C(=O)c1ccccc1C2=O | inactive: 13.6 µM
14 | COC(=O)CCc1ccc2c(c1)CC1(Cc3ccccc3C1)C2 | inactive: > 100 µM
15 | c1ccc2c(c1)SC1=Nc3sc4ccccc4[n+]3CN12 | inactive: 32.1 µM
16 | COc1ccc(/C=N\N2CC(=O)N3C4C=CC(CC4)N3C2=O)cc1 (stereo unspecified) | inactive: > 100 µM
17 | Cc1ccccc1-n1c(C)nc(-c2ccccc2)cc1=O | inactive: > 100 µM
18 | Cc1ccc(N2C(=O)C(=CN)C(=O)N(c3ccc(C)cc3)C2=O)cc1 | inactive: 59.2 µM
19 | CSS(C)(=O)=O | inactive: > 100 µM
20 | CCc1cccc(CC)c1NC(=O)C1=C(C)NC(C)=C(C(=O)Nc2c(CC)cccc2CC)C1c1ccc2c(c1)OCO2 | inactive: 16.9 µM
21 | Nc1nc2c(c(-c3cccc(Cl)c3)n1)COC/C2=C\c1cccc(Cl)c1 | inactive: > 100 µM
22 | O=C(O)c1cccc2c1/C(=N/Nc1ccccc1)CC2 | inactive: > 100 µM
23 | CCCC(N)C(=O)c1ccccc1 (stereo unspecified) | inactive: > 100 µM

Row | Compound | GI50
24 | CC(CC(=O)O)C(C(=O)O)C(=O)O (stereo unspecified) | inactive: > 100 µM
25 | COC1CCC(=O)N1CN(C(C)=O)c1ccc(C)cc1 (stereo unspecified) | inactive: > 100 µM
26 | COc1ccc(/C=C2\CN(C)CC3C2=NN(c2ccccc2)C3c2ccc(OC)cc2)cc1 (stereo unspecified) | inactive: > 100 µM
27 | CC(C)(C1=NC(C(C)(C)C)CO1)C1=N[C@@H](C(C)(C)C)CO1 (stereo partly specified) | inactive: > 100 µM
28 | Cn1c(=O)c(C(=O)NC23CC4CC(CC(C4)C2)C3)c(O)c2ccccc21 | inactive: 25.2 µM
29 | Cn1c2c(c3ccccc31)C1CCCCCCC1C1C(=O)OC(=O)C21 (stereo unspecified) | inactive: 65.6 µM
30 | N#CC(/C(=N\NC(=O)c1ccncc1)C(=O)Nc1ccc([N+](=O)[O-])cc1[N+](=O)[O-])c1nc(-c2ccc(Br)cc2)cs1 (stereo unspecified) | inactive: > 100 µM
31 | C[C@]12CCCC(=O)C1(O)C[C@H](C(=O)O)CC2 (stereo partly specified) | inactive: > 100 µM
32 | O=C1Nc2cccc(C(F)(F)F)c2/C1=N/Nc1ccccc1[N+](=O)[O-] | inactive: 27.5 µM
33 | COC(=O)/C=C(\CC(=O)OC)n1nnnc1[C@@H]1C[C@H](COC(c2ccccc2)(c2ccccc2)c2ccccc2)[C@H]2OC(C)(C)O[C@H]21 | inactive: > 100 µM
34 | O=P(O)(O)C=C=C1CCCCC1 | inactive: > 100 µM
35 | CN(C)C=C1C(=O)N(C)C(=O)N(C)C1=O | inactive: > 100 µM
36 | O=C(Nc1ccc(C(F)(F)F)cc1[N+](=O)[O-])C(=O)C1NC(=S)NC1=O (stereo unspecified) | inactive: > 100 µM
37 | CC(C(=O)C(C)O[Si](c1ccccc1)(c1ccccc1)C(C)(C)C)=P(c1ccccc1)(c1ccccc1)c1ccccc1 (stereo unspecified) | inactive: 3.65 µM
38 | O=C1c2c(ccc3c2CCC3)CC12Cc1ccccc1C2 | inactive: 16.2 µM
39 | CCOC(=O)c1c(NC(=O)c2ccccc2)c(C#N)c2n1CCCCC2 | inactive: > 100 µM
40 | COc1cc2c[n+](C)c3c4ccccc4ccc3c2cc1OC.COc1cc2cnc3c4ccccc4ccc3c2cc1OC | inactive: 10 µM
41 | O=c1[nH]c2cc([N+](=O)[O-])c(N(CCO)CCO)c([N+](=O)[O-])c2[nH]1 | inactive: 37.8 µM
42 | CNc1ccc([N+](=O)[O-])cc1C(=O)N1CCC[C@H]1CO | inactive: > 100 µM
43 | CC[N+](C)(CC)CCN1C(=O)c2ccccc2S1(=O)=O | inactive: > 100 µM
44 | COc1cc2c3c4c1OCc1c5c(cc(c1-4)CC3[N+](C)(C)CC2)OCO5 (stereo unspecified) | inactive: > 100 µM
45 | Cc1cccc(N2C(=O)C(=O)C(c3nc4ccccc4s3)/C(=N/NC(=S)NN)C2=O)c1C (stereo unspecified) | inactive: > 100 µM
46 | O=c1c2cn[nH]c2nc2scc(-c3ccc(Cl)cc3)n12 | inactive: > 100 µM

Row | Compound | GI50
47 | O=c1[nH]c(C2CCCCC2)nc2cc(Cl)ccc12 | inactive: > 100 µM
48 | C/C=C\C(CC(=O)NCCC1CN(C(=O)OCc2ccccc2)c2ccccc21)CC(=O)OC (stereo unspecified) | inactive: > 100 µM
49 | COc1ccc2ccc3oc(=O)c(C)cc3c2c1 | inactive: > 100 µM
50 | CCCN1CCC(=O)N(CCC(F)(F)C(F)(F)C(F)(F)C(F)(F)C(F)(F)C(F)(F)F)C1=S | inactive: > 100 µM
51 | N#CC(=N)c1ncn(-c2ccccc2N)c1N | inactive: > 100 µM
52 | CN(C)CCCn1c(Cc2ccccc2)nc2cc(C(F)(F)F)ccc21 | inactive: 25.7 µM
53 | CC(O)C1CC1(CO)CNc1cc(Cl)nc(N)n1 (stereo unspecified) | inactive: > 100 µM
54 | COc1ccc(-c2[nH]c(=O)n(C3OC(CO)C(O)C(O)C3O)c(=O)c2C#N)cc1 (stereo unspecified) | inactive: > 100 µM
55 | CCCC/C=C1\CCC(CN2CCCC2)C1=O (stereo unspecified) | inactive: 17.7 µM
56 | NS(=O)(=O)c1ccc(/N=N/c2cccnc2O)cc1 | inactive: > 100 µM
57 | Nc1nc(N)c(-c2ccccc2)c(C(=O)Nc2nccs2)n1 | inactive: > 100 µM
58 | CCOC(=O)C(=C=C=C(c1ccccc1)c1ccccc1)C(=O)OCC | inactive: 29.8 µM
59 | COC(=O)c1c(C)nc(C)c(N=O)c1-c1ccccc1C(F)(F)F | inactive: > 100 µM
60 | NCC1CCCCC1.O=C(O)NCC1CCCCC1 | inactive: 33.2 µM
61 | C[N+](C)(C)c1ncnc2c1ncn2C1CCCO1 (stereo unspecified) | inactive: > 100 µM
62 | COC(=O)c1csnn1 | inactive: > 100 µM
63 | Cc1nn(-c2ccccc2)c2nc3c(c(C)nn3-c3ccccc3)c(-c3ccc(C(F)(F)F)cc3)c12 | inactive: > 100 µM
64 | O=C(Cc1ccccc1)NNc1nc(NNC(=O)c2ccncc2)nc(Nc2ccccc2)n1 | inactive: > 10 µM
65 | COC12OC3(C4OC41)C(C(=O)O[C@H]3CO[Si](C)(C)C(C)(C)C)C2C(=O)Oc1ccccc1 (stereo partly specified) | inactive: > 100 µM
66 | O=C(N1CCN(c2ccccc2)CC1)N(C(=O)C1(c2ccc(Cl)cc2)CCCC1)S(=O)(=O)c1ccccc1 | inactive: 29.3 µM
67 | Cc1[nH]c2ncn(Nc3ccccc3)c(=N)c2c1Cc1ccccc1 | inactive: > 38.1 µM
68 | CCOC(=O)Cc1c(C(=O)OCC)[n+]([O-])c2cc(Cl)c(Cl)cc2[n+]1[O-] | inactive: 5.02 µM
69 | COc1cc(C(c2c(O)c3ccccc3oc2=O)c2c(O)c3ccccc3oc2=O)ccc1O | inactive: 95.3 µM

Row | Compound | GI50
70 | O=C1N[C@@H]2CCCC[C@@H]2C12CCCCC2 | inactive: > 100 µM
71 | COc1ccccc1N1C(=O)CSC1c1c[nH]c2ccccc12 (stereo unspecified) | inactive: > 100 µM
72 | CCCCCCCCCCCCSC(=S)c1c(C)[nH]n(-c2ccccc2)c1=O | inactive: 10.5 µM
73 | Cc1c(C(=O)/C=C/c2ccc(N(C)C)cc2)c(=O)n(-c2ccccc2)n1C | inactive: > 100 µM
74 | COC[C@H](Cc1ccccc1)/N=C/c1ccccc1 | inactive: > 100 µM
75 | COC1/C=C\C=C(/C)C(=O)Nc2cc3nc4ccc(Br)cc4oc-3c(c2=O)CC(C)CC(OC)C(O)C(C)/C=C(\C)C1OC(N)=O (stereo unspecified) | inactive: 10.2 µM
76 | CCCC/C=C1/CCC(CN(C)C)C1=O (stereo unspecified) | inactive: 9.38 µM
77 | OC1CN2Cc3cc4c(cc3[C@]13C=C[C@@H](O)CC23)OCO4 (stereo partly specified) | inactive: 17.3 µM
78 | Nc1c(Cl)c([N+](=O)[O-])cc2c1OCCCCO2 | inactive: > 100 µM
79 | COc1cc(C2c3cc4c(cc3[C@@H](Nc3cccc(O)c3)C3COC(=O)[C@H]23)OCO4)cc(OC)c1O (stereo partly specified) | inactive: 7.96 µM
80 | O=C1c2ccccc2N2OC3(N4CCOCC4)CCCC3C12c1ccccc1 (stereo unspecified) | inactive: > 100 µM
81 | CC1(C)CC(=O)c2c(nc3c4c([nH]c(-c5ccc([N+](=O)[O-])cc5)c24)CC(C)(C)C3)C1 | inactive: > 100 µM
82 | CC[C@@H]1/C=C/C=C/C[C@H](C)[C@@H](O)[C@@H](C)C(=O)[C@H](C)[C@@H](O)[C@H](C)C(=O)[C@H](C)[C@@H](O)[C@H](C)/C=C/C(=O)O[C@H]2[C@@H](C)[C@@H](CC1)O[C@@]1(CC[C@@H](C)[C@@H](CC(C)O)O1)[C@@H]2C (stereo partly specified) | inactive: 8.71 µM
83 | OCCNCN(CNCCO)c1nc(N(CNCCO)CNCCO)nc(N(CNCCO)CNCCO)n1 | active: 0.082 µM
84 | COc1cc(C2c3cc4c(cc3[C@@H](Nc3ccc(C#N)cc3)C3COC(=O)[C@H]23)OCO4)cc(OC)c1O (stereo partly specified) | inactive: 8.43 µM
85 | O=C(/N=C(\Nc1ccccc1)SCCS/C(=N/C(=O)c1cccs1)Nc1ccccc1)c1cccs1 | inactive: 89.9 µM
86 | CCn1c2ccccc2c2cc(Nc3cc(C)[nH]c(=O)n3)ccc21 | inactive: > 100 µM
87 | O=C1/C(=C/c2cccc([N+](=O)[O-])c2)N=C(c2ccccc2)N1c1ccc2c(c1)Sc1cc(N3C(=O)/C(=C/c4cccc([N+](=O)[O-])c4)N=C3c3ccccc3)ccc1N2 | inactive: 19.3 µM
88 | CC(C)CCC1(O)O[C@H]2C[C@H]3[C@@H]4CCC5CC(=O)C=C[C@]5(C)[C@H]4CC[C@]3(C)[C@H]2[C@@H]1C (stereo partly specified) | inactive: 14.5 µM
89 | COC(=O)N/N=C(\Cc1ccccc1)CN(C)C | inactive: > 100 µM
90 | COc1ccc(-c2cc(O)c3c(C)ccnc3n2)cc1 | inactive: 29.9 µM
91 | CCC/C=C/C=C/C1CC(O)C(O)C(=O)C1CO (stereo unspecified) | inactive: > 100 µM

— ChEMBL document CHEMBL1201862, “PubChem BioAssay data set” (2004)
